From patent publication US7592419B2, “Macrocyclic inhibitors of hepatitis C virus NS3-serine protease” (Schering Corporation, priority 2003, dated 2009) come the findings set out here.

The target of the first experiment is Recombinant heterodimeric HCV NS3/NS4A protease (strain 1a) (Hepatitis C virus genotype 1a, UniProt P27958). Kind of experiment: Spectrophotometric assay for HCV protease inhibitory activity (chromogenic ester substrates). The experiment is classed as biochemical, hepatitis C virus (strain 1a). As to conditions: Table 1, 30° C., pH 6.5, read-out: Binding Activity (Ki rating). The protocol: Assay for HCV Protease Inhibitory Activity:
Spectrophotometric Assay: Spectrophotometric assays for the HCV serine protease was performed on the inventive compounds by following the procedure described by R. Zhang et al, Analytical Biochemistry, 270 (1999) 268-275, the disclosure of which is incorporated herein by reference. The assay based on the proteolysis of chromogenic ester substrates is suitable for the continuous monitoring of HCV NS3 protease activity. The substrates were derived from the P side of the NS5A-NS5B junction sequence (Ac-DTEDVVX(Nva), where X=A or P) whose C-terminal carboxyl groups were esterified with one of four different chromophoric alcohols (3- or 4-nitrophenol, 7-hydroxy-4-methyl-coumarin, or 4-phenylazophenol). Presented below are the synthesis, characterization and application of these novel spectrophotometric ester substrates to high throughput screening and detailed kinetic evaluation of HCV NS3 protease inhibitors. Materials and Methods:
Protein concentrations were determined by the Biorad dye method using recombinant HCV protease standards previously quantified by amino acid analysis. Prior to assay initiation, the enzyme storage buffer (50 mM sodium phosphate pH 8.0, 300 mM NaCl, 10% glycerol, 0.05% lauryl maltoside and 10 mM DTT) was exchanged for the assay buffer (25 mM MOPS pH 6.5, 300 mM NaCl, 10% glycerol, 0.05% lauryl maltoside, 5 μM EDTA and 5 μM DTT) utilizing a Biorad Bio-Spin P-6 prepacked column.
Protease Assay: HCV protease assays were performed at 30° C. using a 200 μl reaction mix in a 96-well microtiter plate. Assay buffer conditions (25 mM MOPS pH 6.5, 300 mM NaCl, 10% glycerol, 0.05% lauryl maltoside, 5 μM EDTA and 5 μM DTT) were optimized for the NS3/NS4A heterodimer (D. L. Sali et al, ibid.)). Typically, 150 μl mixtures of buffer, substrate and inhibitor were placed in wells (final concentration of DMSO≦4% v/v) and allowed to preincubate at 30° C. for approximately 3 minutes. Fifty μls of prewarmed protease (12 nM, 30° C.) in assay buffer, was then used to initiate the reaction (final volume 200 μl). The plates were monitored over the length of the assay (60 minutes) for change in absorbance at the appropriate wavelength (340 nm for 3-Np and HMC, 370 nm for PAP, and 400 nm for 4-Np) using a Spectromax Plus microtiter plate reader equipped with a monochrometer (acceptable results can be obtained with plate readers that utilize cutoff filters). Proteolytic cleavage of the ester linkage between the Nva and the chromophore was monitored at the appropriate wavelength against a no enzyme blank as a control for non-enzymatic hydrolysis. The evaluation of substrate kinetic parameters was performed over a 30-fold substrate concentration range (−6-200 μM). Initial velocities were determined using linear regression and kinetic constants were obtained by fitting the data to the Michaelis-Menten equation using non-linear regression analysis (Mac Curve Fit 1.1, K. Raner). Turnover numbers (kcat) were calculated assuming the enzyme was fully active.
Evaluation of Inhibitors and Inactivators: The inhibition constants (Ki*) for the competitive inhibitors Ac-D-(D-Gla)-L-1-(Cha)-C-OH (27), Ac-DTEDVVA(Nva)-OH and Ac-DTEDWP(Nva)-OH were determined experimentally at fixed concentrations of enzyme and substrate by plotting vo/vi vs. inhibitor concentration ([I]o) according to the rearranged Michaelis-Menten equation for competitive inhibition kinetics: vo/vi=1+[I]o/(Ki(1+[S]o/Km)), where vo is the uninhibited initial velocity, vi is the initial velocity in the presence of inhibitor at any given inhibitor concentration ([I]o) and [S]o is the substrate concentration used. The resulting data were fitted using linear regression and the resulting slope, 1/(Ki(1+[S]o/Km), was used to calculate the Ki* value.
For `CC1(NC(=O)N[C@@H]2C(=O)N3C[C@H]4[C@@H]([C@H]3C(=O)N[C@H](C(=O)C(N)=O)CCCCCCCCCC2(C)C)C4(C)C)CCCCC1` [Example 19], the Ki is < 100 nM. For `C=CCNC(=O)C(=O)[C@@H]1CCCCCCCCC[C@H](NC(=O)N[C@H](C(=O)C2CC2)C2CCCCC2)C(=O)N2C[C@H]3[C@@H]([C@H]2C(=O)N1)C3(C)C` [Example 30], the Ki is < 100 nM. Regarding `Cc1ccc(S(=O)(=O)CNC(=O)C(=O)[C@@H]2CCCCCCCCCC[C@H](NC(=O)OC(C)(C)C)C(=O)N3C[C@H]4[C@@H]([C@H]3C(=O)N2)C4(C)C)cc1` [Example 13], the Ki was < 100 nM. Regarding `C=CCNC(=O)C(=O)[C@@H]1CCCCCCCCC[C@H](NC(=O)OC(C)(C)C)C(=O)N2C[C@H]3[C@@H]([C@H]2C(=O)N1)C3(C)C` [Example 22], the Ki is < 100 nM. Turning to `CN(C)C(=O)[C@@H](NC(=O)CNC(=O)C(=O)[C@@H]1CCCCCCCCCC[C@H](NC(=O)OC(C)(C)C)C(=O)N2C[C@@H]3OC(C)(C)C[C@@H]3[C@H]2C(=O)N1)c1ccccc1` [Example 10], the Ki is < 100 nM. Regarding `CC(C)(C)NC(=O)N[C@H]1CCCCCCCCCC[C@@H](C(=O)C(N)=O)NC(=O)[C@@H]2[C@H]3CC(C)(C)O[C@H]3CN2C1=O` [Example 12], the Ki was 100 to 1000 nM. Take `CC(C)(C)OC(=O)N[C@@H]1C(=O)N2C[C@H]3[C@@H]([C@H]2C(=O)N[C@H](C(=O)C(N)=O)CCCCCCCCCC1(C)C)C3(C)C` [Example 16]: the Ki is ≥ 1000 nM.

For `CC(C)COC(=O)N[C@H]1CCCCCCCC(C(=O)C(=O)NCC(=O)N[C@H](C(=O)N(C)C)c2ccccc2)NC(=O)[C@@H]2CCCN2C1=O` (some centres unmarked) [Example 15], the Ki is ≥ 1000 nM. For `CC1(NC(=O)N[C@H]2CCCCCCCCCC[C@@H](C(=O)C(N)=O)NC(=O)[C@@H]3[C@@H]4[C@H](CN3C2=O)C4(C)C)CCCCC1` [Example 6], the Ki is < 100 nM.

Still in this experiment, the particulars now being: Table 2, 30° C., pH 6.5, read-out: Activity Ki* (nM) (rating).
`C=CCNC(=O)C(=O)[C@@H]1CCCCCCCOC[C@H](NC(=O)N[C@H](CN(C)S(=O)(=O)CC)C(C)(C)C)C(=O)N2C[C@H]3[C@@H]([C@H]2C(=O)N1)C3(C)C` [Example 63]: the Ki is < 100 nM.

As to `CN(C[C@@H](NC(=O)N[C@H]1CCCCCCCCC[C@@H](C(=O)C(=O)NCC2CC2)NC(=O)[C@@H]2[C@@H]3[C@H](CN2C1=O)C3(C)C)C(C)(C)C)S(=O)(=O)c1cccs1` [Example 35], the Ki is < 100 nM. As for `CC(C)(C)OC(=O)N[C@H]1CCCCCCCCC[C@@H](C(=O)C(=O)NCC2CC2)NC(=O)[C@@H]2[C@@H]3[C@H](CN2C1=O)C3(C)C` [Example 32], the Ki is 100 to 1000 nM.

Regarding `C=CCNC(=O)C(=O)[C@@H]1CCCCCCCCC[C@H](NC(=O)N[C@H](CN(C)S(=O)(=O)c2ccccn2)C(C)(C)C)C(=O)N2C[C@H]3[C@@H]([C@H]2C(=O)N1)C3(C)C` [Example 45], the Ki is < 100 nM.

For the molecule `C=CCNC(=O)C(=O)[C@@H]1CCCCCCCCC[C@H](NC(=O)N[C@H](CN2CCCCC2=O)C(C)(C)C)C(=O)N2C[C@H]3[C@@H]([C@H]2C(=O)N1)C3(C)C` [Example 46], the Ki is < 100 nM.

As for `CCS(=O)(=O)N(C)C[C@@H](NC(=O)N[C@H]1COCCCCCCC[C@@H](C(=O)C(=O)NC2CC2)NC(=O)[C@@H]2[C@@H]3[C@H](CN2C1=O)C3(C)C)C(C)(C)C` [Example 64], the Ki was < 100 nM.

As for `C=CCNC(=O)C(=O)[C@@H]1CCCCCCCO[C@@H](C)[C@H](NC(=O)N[C@H](CN(C)S(=O)(=O)CC)C(C)(C)C)C(=O)N2C[C@H]3[C@@H]([C@H]2C(=O)N1)C3(C)C` [Example 66], the Ki was < 100 nM. Still for that read-out and setting: as for `C=CCNC(=O)C(=O)[C@@H]1CCCCCCCOC[C@H](NC=O)C(=O)N2C[C@H]3[C@@H]([C@H]2C(=O)N1)C3(C)C` [Example 57], the figure is ≥ 1000 nM; as for `CC(C)(C)OC(=O)N[C@H]1CCCCCCCCC[C@@H](C(=O)C(=O)NC2CC2)NC(=O)[C@@H]2[C@@H]3[C@H](CN2C1=O)C3(C)C` [Example 33], < 100 nM; as for `CCCNC(=O)C(=O)[C@@H]1CCCCCCCCC[C@H](NC(=O)NC2(CS(=O)(=O)C(C)(C)C)CCCCC2)C(=O)N2C[C@H]3[C@@H]([C@H]2C(=O)N1)C3(C)C` [Example 43], < 100 nM. Still for that read-out and setting: the figure for `C=CCNC(=O)C(=O)[C@@H]1CCCCCCCOC[C@H](NC(=O)NC2(CS(=O)(=O)C(C)(C)C)CCCCC2)C(=O)N2C[C@H]3[C@@H]([C@H]2C(=O)N1)C3(C)C` [Example 53] is < 100 nM; for `CC1(C)[C@@H]2[C@H]3C(=O)N[C@H](C(=O)C(=O)NCC4CC4)CCCCCCCCC[C@H](NC(=O)NC4(CS(=O)(=O)C(C)(C)C)CCCCC4)C(=O)N3C[C@@H]21` [Example 40] it is < 100 nM; for `CCNC(=O)C(=O)[C@@H]1CCCCCCCCC[C@H](NC(=O)N[C@H](CN(C)S(=O)(=O)c2cccs2)C(C)(C)C)C(=O)N2C[C@H]3[C@@H]([C@H]2C(=O)N1)C3(C)C` [Example 37] it is < 100 nM. Turning to `CCNC(=O)C(=O)[C@@H]1CCCCCCCCC[C@H](NC(=O)NC2(CS(=O)(=O)C(C)(C)C)CCCCC2)C(=O)N2C[C@H]3[C@@H]([C@H]2C(=O)N1)C3(C)C` [Example 38], the Ki was < 100 nM.

Regarding `CCNC(=O)C(=O)[C@@H]1CCCCCCCCC[C@H](NC(=O)N[C@H](CN2C(=O)CC(C)(C)CC2=O)C(C)(C)C)C(=O)N2C[C@H]3[C@@H]([C@H]2C(=O)N1)C3(C)C` [Example 68], the Ki is < 100 nM. `C=CCNC(=O)C(=O)[C@@H]1CCCCCCCCC[C@H](NC(=O)N[C@H](CN2C(=O)CC(C)(C)CC2=O)C(C)(C)C)C(=O)N2C[C@H]3[C@@H]([C@H]2C(=O)N1)C3(C)C` [Example 51]: the Ki was < 100 nM. For `C=CCNC(=O)C(=O)[C@@H]1CCCCCCCCC[C@H](NC(=O)[C@@H](NC(=O)c2cnccn2)C2CCCCC2)C(=O)N2C[C@H]3[C@@H]([C@H]2C(=O)N1)C3(C)C` [Example 50], the Ki is < 100 nM.

The same experiment, now with this note: Table 2A, 30° C., pH 6.5, read-out: Binding Activity (Ki rating).
As to `CC(C)COC(=O)N[C@H]1CC/C=C/CC2(CC2)CC(C(=O)C(=O)NCC(=O)N[C@H](C(=O)O)c2ccccc2)NC(=O)[C@@H]2CCCN2C1=O` (some centres unmarked) [Example 82], the Ki is ≥ 1000 nM. Take `CC(C)COC(=O)N[C@H]1CCCCCCCC(C(=O)C(=O)NCC(=O)N[C@H](C(=O)O)c2ccccc2)NC(=O)[C@@H]2CCCN2C1=O` (some centres unmarked) [Example 84]: the Ki lay in the range of 100 to 1000 nM. Consider `CC(C)COC(=O)N[C@H]1CC/C=C/CCCC(C(=O)C(=O)NCC(=O)N[C@H](C(=O)O)c2ccccc2)NC(=O)[C@@H]2CCCN2C1=O` (some centres unmarked) [Example 80], for which the inhibitory constant (Ki) is ≥ 1000 nM. Turning to `CC(C)COC(=O)N[C@H]1CC/C=C/CC2(CC2)CC(C(=O)C(=O)NCC(=O)N[C@H](C(=O)OC(C)(C)C)c2ccccc2)NC(=O)[C@@H]2CCCN2C1=O` (some centres unmarked) [Example 83], the Ki was ≥ 1000 nM.

The experiment is the same for the next values; noted with them: Table 3, 30° C., pH 6.5, read-out: Activity Ki*.
For the molecule `C=CCNC(=O)C(=O)[C@@H]1CCCCCCCCC[C@H](NC(=O)N[C@H](C(=O)C2CC2)C2CCCCC2)C(=O)N2C[C@H]3[C@@H]([C@H]2C(=O)N1)C3(C)C` [Example 30], the Ki is 5 nM.

As for `C=CCNC(=O)C(=O)[C@@H]1CCCCCCCCC[C@H](NC(=O)OC(C)(C)C)C(=O)N2C[C@H]3[C@@H]([C@H]2C(=O)N1)C3(C)C` [Example 22], the Ki was found to be 36 nM.

A word on the Ki: it is the equilibrium dissociation constant of an inhibitor or competing ligand from its target.
